In paper PMC4336329 (PLoS ONE, 2015):
The whole screen tested about 310,000 compounds, of which about 2,200 (0.71%) showed an effect of 50% or more. Effects have a minus sign here. The list shows a part of the results.

target: human ether-à-go-go-related gene (hERG) potassium channel (human, UniProt Q12809); assay: primary screen, population patch clamp on CHO cells stably expressing hERG
Sequence (Q12809 whole entry, looked up): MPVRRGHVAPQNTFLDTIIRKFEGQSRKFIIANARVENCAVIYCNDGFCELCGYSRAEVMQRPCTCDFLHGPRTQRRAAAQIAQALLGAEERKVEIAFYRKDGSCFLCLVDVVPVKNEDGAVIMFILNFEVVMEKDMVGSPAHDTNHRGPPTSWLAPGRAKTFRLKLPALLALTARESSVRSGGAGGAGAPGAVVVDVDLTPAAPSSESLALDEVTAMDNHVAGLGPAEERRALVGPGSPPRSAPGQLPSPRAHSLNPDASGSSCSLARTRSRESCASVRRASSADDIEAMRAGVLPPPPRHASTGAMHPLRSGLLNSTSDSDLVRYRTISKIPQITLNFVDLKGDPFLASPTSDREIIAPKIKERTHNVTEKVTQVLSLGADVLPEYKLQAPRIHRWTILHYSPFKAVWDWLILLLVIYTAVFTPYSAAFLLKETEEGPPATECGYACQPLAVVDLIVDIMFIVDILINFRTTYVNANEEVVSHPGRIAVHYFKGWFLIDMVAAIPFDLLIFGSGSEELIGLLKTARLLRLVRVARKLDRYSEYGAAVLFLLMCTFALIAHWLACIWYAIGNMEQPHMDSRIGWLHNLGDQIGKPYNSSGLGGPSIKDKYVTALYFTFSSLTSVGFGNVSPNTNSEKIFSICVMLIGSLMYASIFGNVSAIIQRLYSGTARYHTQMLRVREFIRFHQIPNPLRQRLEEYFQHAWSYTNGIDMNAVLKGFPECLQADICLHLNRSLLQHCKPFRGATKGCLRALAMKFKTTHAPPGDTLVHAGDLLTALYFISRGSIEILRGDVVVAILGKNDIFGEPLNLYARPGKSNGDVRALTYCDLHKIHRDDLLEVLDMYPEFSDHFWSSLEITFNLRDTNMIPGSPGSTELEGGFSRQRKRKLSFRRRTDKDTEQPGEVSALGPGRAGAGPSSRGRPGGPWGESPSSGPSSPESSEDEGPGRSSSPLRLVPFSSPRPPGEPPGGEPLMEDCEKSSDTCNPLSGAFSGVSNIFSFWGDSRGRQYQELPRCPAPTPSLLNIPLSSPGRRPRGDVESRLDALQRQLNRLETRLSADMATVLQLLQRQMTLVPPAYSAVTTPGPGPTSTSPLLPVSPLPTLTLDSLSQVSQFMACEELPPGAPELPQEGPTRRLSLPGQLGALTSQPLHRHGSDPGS

| SMILES | hERG current change (%, negative = inhibition) at 1uM [%] |
| --- | --- |
| O=C(OCC(=O)N1CCc2ccccc2C1)c1ccc(N2CCOCC2)c([N+](=O)[O-])c1 | -0.912 |
| Cn1c(Cn2c(=O)sc3ccccc32)nnc1SCC(=O)Nc1ccc2c(c1)OCO2 | 9.37 |
| Nc1ccc(C(=O)[O-])c(O)c1.O.[Na+] | 15 |
| CC(=O)c1cc2c(cc1NS(=O)(=O)c1ccccc1C)OCO2 | 5.78 |
| CN1CCc2c(c3c(n2C)CCN(C)[C@@H]3c2cccnc2)[C@H]1c1cccnc1.Cl | 23.7 |
| O=C(OCCCc1cc2ccccc2c(=O)o1)c1ccc(F)cc1 | 6.43 |
| COc1ccccc1CN1CCC(n2nccc2NC(=O)CCCc2ccccc2)CC1 | -42.7 |
| COC(=O)c1cc(NC(=O)c2ccccc2)c(=O)oc1C/C=N\OCc1ccc(Cl)cc1Cl | -0.0974 |
| CC1CCN(c2ccccc2NC(=O)c2ccc(F)cc2)CC1 | 12.2 |
| O=C(c1ccccc1Br)N1CCN(c2ncccn2)CC1 | 11.7 |
| COc1cc2[nH]c(=S)n(CC3CCCO3)c(=O)c2cc1OC (centres unmarked) | 4.14 |
| Cc1ccc(C2(C)NC(=O)N(CC(=O)NNC(=O)c3cc(C)oc3C)C2=O)cc1 (centres unmarked) | 14.4 |
| Cc1nc2sccc2c(=O)n1-c1cccc(Cl)c1 | 6.02 |
| CCN(CC)CCCSc1nc2ccccc2s1.O=C(O)C(=O)O | -2.99 |
| CC1Cc2ccccc2N1c1ncnc(N)c1[N+](=O)[O-] (centres unmarked) | 3.69 |
| CC(C)(C)Nc1scc(-c2ccccc2)[n+]1-c1ccccc1.[Br-] | -0.495 |
| CCN1C[C@]2(COC)CC[C@H](O)[C@@]34C5C[C@@H]6[C@@H](OC)C[C@@](O)(C5[C@H]6O)[C@](O)([C@@H](OC)C23)[C@@H]14 (some centres unmarked) | 9.78 |
| O=C1Nc2ccccc2C12OCC(COc1ccc(Cl)cc1)O2 (centres unmarked) | 11 |
| CCc1nn(CC(=O)NCCc2ccc(OC)cc2OC)c(=O)c2cc3occc3n12 | 10.4 |

| SMILES | hERG current change (%, negative = inhibition) at 1uM [%] |
| --- | --- |
| COc1ccccc1NC(=O)c1c([N+](=O)[O-])c(C(C)(C)C)nn1C | -1.17 |
| CC(C)(C)c1ccc(NC(=O)NCc2ccco2)cc1 | -1.05 |
| COc1ccc2c(c1)[nH]c1c(=O)n(CCN3CCOCC3)cnc12 | 9.72 |
| O=C(O)c1ccccc1C(=O)N1CCc2c([nH]c3ccccc23)C1C(F)(F)F (centres unmarked) | 11.7 |
| Cc1cc(Nc2ccc([N+](=O)[O-])cc2)nc2ccccc12 | 7.46 |
| O=C1CCCC/C1=C/Nc1ccc2c(c1)OCO2 | 19.9 |
| CN1CCN(C(=S)Nc2cc([N+](=O)[O-])ccc2Cl)CC1 | 7.19 |
| Cc1cc(NC(=O)CCC(=O)N(c2ccccc2)C(C(=O)NC2CCCC2)c2ccccc2)no1 (centres unmarked) | 5.45 |
| COc1ccc(C2CC(c3ccc(C)o3)=NN2C(C)=O)cc1 (centres unmarked) | 6.22 |
| Clc1ccc(-c2cc(COc3ccccc3)on2)cc1 | 13.5 |
| Cc1ccc(C(=O)Nc2ccc3c(c2)OCO3)cc1S(=O)(=O)N1CCCC1 | 5.87 |
| CN(C)S(=O)(=O)c1ccc(N2CCCC2=O)c([N+](=O)[O-])c1 | 0.0262 |
| Cc1ccc(CNC(=O)c2cccc3c2C(=O)c2ccc(N4CCC(C)CC4)cc2S3(=O)=O)cc1 | 14.3 |
| O=C(Nc1ccccc1N1CCOCC1)c1cccc(NS(=O)(=O)c2ccc(F)c(F)c2)c1 | 17.9 |
| CCN1C(=O)[C@H]2[C@@H](c3ccc(Cl)cc3)N3C(=O)CN(CC4CC4)C(=O)[C@@]3(C)[C@H]2C1=O | -1.33 |
| COc1ccc(C(=O)NCc2ccncc2)cc1OC | 17.1 |
| O=C(NCc1ccccc1Cl)c1ccc2nnsc2c1 | 14.4 |
| CCCCN(C)C(=O)c1cn(CC)c2ccc(S(=O)(=O)N(C)C)cc2c1=O | 10.2 |
| COc1ccc(/C=N/NC(=O)CCc2n[nH]c(=O)[nH]c2=O)cc1O | 8.82 |

| SMILES | hERG current change (%, negative = inhibition) at 1uM [%] |
| --- | --- |
| CCCCCc1nc2c(c(=O)c3ccccc3n2C)c(=O)n1C1CCCCCC1 | 20.1 |
| S=C(NC1CCCCC1)N1CCn2cccc2C1c1cccnc1 (centres unmarked) | 8.79 |
| O=C(Nc1ccccc1-c1ccccc1)C1CCCCC1 | 4.9 |
| Cc1nn2c(NCCCN(C)C)c3c(nc2c1-c1ccccc1)CCCC3 | 3.47 |
| O=C(O)c1ccccc1-c1ccccc1C(=O)NCc1ccccc1F | 15.8 |
| CNc1ccccc1C(=O)OC | 12.8 |
| CN(CC(=O)NNC(=O)c1cccnc1)S(=O)(=O)c1cc(Cl)ccc1Cl | 15 |
| O=[N+]([O-])c1ccc2nc(SCc3cn4cccnc4n3)[nH]c2c1 | -5.33 |
| CCN1CCN(C(=O)c2ccc3c(c2)N(Cc2ccccc2)C(=O)c2ccccc2S3=O)CC1 (centres unmarked) | 1.19 |
| COC(=O)c1cc(-c2ccc(Br)cc2)c2c(=O)n(C)c(=O)n(C)c2n1 | 11.7 |
| COCc1cc(C)nc(NC2CCCCC2)c1C#N | -2.62 |
| Cc1ccc(F)cc1NC(=O)CN1C(=O)NC2(CCCc3ccccc32)C1=O (centres unmarked) | 4.17 |
| CCC(C)(C)n1nnnc1CN1CCSCC1.Cl | 14 |
| CCOC(=O)c1sc(=NC(=O)c2ccc(OC)c(OC)c2)n(C)c1C | 9.97 |
| N#CCC(=O)Nc1nc(-c2ccc3c(c2)OCCO3)cs1 | 8.5 |
| CC(O)[C@H]1CN=C(N)N1CC(C)(C)C (some centres unmarked) | 16.1 |
| CC1CN(C(=O)c2ccc(N3CCCCC3)c([N+](=O)[O-])c2)CC(C)O1 (centres unmarked) | 6.28 |
| CCOc1ccc(NC(=O)COc2ccc(C(=O)NC(C)c3ccc(S(N)(=O)=O)cc3)cc2OC)cc1 (centres unmarked) | 9.08 |
